Measurements from PubChem BioAssay AID493208 (National Center for Advancing Translational Sciences (NCATS), 2011).
About 340 (0.77%) of roughly 44,000 compounds were called active. About 5% were inconclusive and are not listed. The call rests on the fitted dose curve; in most records, active means well fitted inhibition curve with a large enough effect; inconclusive means small, poorly fitted or top-dose-only effect; inactive means flat fitted curve, though single readings scatter. The list shows a part of the results.

Assay: Acumen qHTS Assay for Inhibitors of the mTORC1 Signaling Pathway in MEF (Tsc2-/-, p53-/-) Cells: Sytravon;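 further: plate controls were DMSO for no effect and rapamycin for full effect; nearly all actives have a fitted effect of over 50% in size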
Details: phospho-rpS6 immunofluorescence/PI, 24 h; series mostly up to 38.3 µM; activity change, negative = inhibition: at the top concentration
How it was run: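 Tsc2-/-, p53-/- MEFs (empty-vector stable line) in DMEM + 10% FBS were treated with compounds 24 h at 37 degree Celsius, fixed, and immunostained for phospho-rpS6 (Alexa-488) with propidium iodide counterstain. Laser-scanning cytometry gave % positive cells, normalized against 7.5 nM rapamycin and DMSO.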

Activity change, negative = inhibition, inactive:
Cc1c(C(=O)Nc2ccc(-c3nc4cc(Cl)ccc4o3)cc2)oc2ccccc12 -2.7%
COc1ccc(N(C)C(=O)c2nc(-c3cccc(F)c3)n3c2CCCCC3)c(OC)c1 -5.99%
CCOc1ccc(NC(=O)CN2CCN(C3CCCCC3)C(=O)C2=O)cc1 14.7%
Cc1ccc(S(=O)(=O)N2CCc3cc(C(=O)NCCc4ccccc4)ccc32)cc1 0.258%
Cc1ccc(-c2cc(-c3coc4ccccc4c3=O)c3c(n2)-c2ccccc2OC3)cc1 4.69%
Cc1c(-c2cccc(NC(=O)Nc3ccccc3)c2)nc2ncccn12 0.632%
Cc1cc(-c2ccc(S(=O)(=O)NCc3ccccc3Cl)s2)on1 -4.12%
CCS(=O)(=O)N1CCC2(CC1)OC(=O)C(C)=C2C(=O)NCc1ccccc1C -0.393%
COc1cccc(Cn2c(=O)cc(C)c3c(C)nn(-c4ccc(C)cc4)c32)c1 -9.6%
Cc1ccc(S(=O)(=O)n2nc(-c3ccccc3)nc2NCc2ccccc2Cl)cc1 2.79%
Cc1cccc(N2C(=O)C(CC(=O)Nc3ccc(F)cc3)N(C3CCCC3)C2=O)c1 (stereo not given) -0.452%
Cc1ccc(-c2cc(C(=O)N3CCN(S(=O)(=O)c4ccc(Br)s4)CC3)[nH]n2)cc1C -0.265%
Cc1oc2ccc(O)c(CN3CCN(C)CC3)c2c1C(=O)Nc1ccc(C(C)C)cc1 -8.98%
COc1ccc(CNc2nc(-c3ccco3)nn2S(=O)(=O)c2ccc3ccccc3c2)cc1OC 0.579%
Cc1cc(C)n2nc(NCc3ccccc3Cl)nc2n1 -1.62%
Cc1ccc(C)c(NC(=O)Cn2c(=O)n(Cc3nc(C)no3)c(=O)c3cc4c(cc32)OCO4)c1 0%
CCc1ccc(NC(=O)Cn2c(=O)n(Cc3ccc4c(c3)OCO4)c(=O)c3oc4ccccc4c32)cc1 -3.2%
Cc1ccc(-c2noc(CN(C3CCCCC3)S(=O)(=O)c3ccc(F)cc3)n2)cc1 5.82%
CC(=O)Nc1ccc(NC(=O)CSc2cn(CC(=O)N(C(C)C)C(C)C)c3ccccc23)cc1 2%
Cc1cc2oc(C(=O)NCCc3ccc(S(N)(=O)=O)cc3)cc(=O)c2cc1C -9.43%
CCC(=O)N1CCc2cc(S(=O)(=O)NC(Cc3ccccc3)C(=O)NCc3ccc(C)cc3)ccc21 (stereo not given) -2.62%
CCOc1ccccc1CN1C(=O)c2ccccc2C1C(=O)NC1CCCCCC1 (stereo not given) -3.2%
COc1cc(C(=O)NCc2nnnn2-c2ccc(C)c(C)c2)cc(OC)c1OC 6.27%
COC(=O)c1cc2occc2n1Cc1nc(-c2ccccc2C)oc1C -6.88%
COc1ccc(-c2nc(C)c(CCNC(=O)c3ccco3)s2)cc1 -19.4%
CCC(C)Sc1nc2c([nH]c3ccccc32)c(=O)n1C (stereo not given) -6.35%
CCN1CCN(C(=O)c2ccc3c(c2)N(Cc2c(F)cccc2Cl)C(=O)c2ccccc2S3)CC1 -12.1%
Cc1ccccc1COC(=O)c1ccc(-c2nnn(Cc3ccccc3F)n2)cc1 2.63%
CC(=O)N1c2ccc(S(=O)(=O)N3CCN(c4cc(Cl)ccc4C)CC3)cc2CC1C (stereo not given) -3.12%
O=C(CCCCCn1c(=O)[nH]c2ccccc2c1=O)N1CCN(c2ccc(Cl)cc2)CC1 -4.68%
COC(=O)c1ccc(CNC(=O)c2nc(Cn3nc(C)c(Br)c3C)no2)cc1 2.7%
O=C(CSc1nc2c([nH]c3ccccc32)c(=O)n1-c1cccc(Cl)c1)NCc1ccccc1 -19.9%
COc1cc2c(cc1OC)C(COc1cc(C)cc(C)c1)N(C(=O)c1ccc(S(=O)(=O)N3CCCC3)cc1)CC2 (stereo not given) 4.77%
CCc1nnc(NC(=O)CSc2nc3c([nH]c4ccccc43)c(=O)n2-c2ccc(C)cc2)s1 -6.84%
CCc1nc2ccc(C(=O)N3CCN(c4cccc(OC)c4)CC3)cc2nc1CC -3.12%
Cc1ccc(C)c(-c2ccc(=O)n(Cc3ccc(F)cc3Cl)n2)c1 -6.25%
O=C(COc1ccccc1)Nc1sc2c(c1C(=O)Nc1ccccc1)CCCCC2 -9.09%
CCOC(=O)C1CCCN(C(=O)Cn2ncc3c4ccccc4n(Cc4ccc(F)cc4)c3c2=O)C1 (stereo not given) -5.57%
CCOC(=O)c1ccc(NC(=O)CCn2c(=O)oc3ccccc32)cc1 -3.4%
CCOC(=O)CNC(=O)CC(c1cc(OC)c(OC)c(OC)c1)N1Cc2ccccc2C1=O (stereo not given) 1.29%
CCN(CC)c1ccc(C(=O)Nc2ccc3nc(N(CC)CC)cc(C)c3c2)cc1 -4.61%
Cc1ccc2[nH]c(CSc3nnc(NC(=O)COc4ccccc4Cl)s3)cc(=O)c2c1 -16.5%
CCc1ccc(NC(=O)C2CCCN(S(=O)(=O)c3cccc4cccnc34)C2)cc1 (stereo not given) 1.28%
Cc1ccc(CNC(=O)c2sc3ncnc(N(C)C4CCCCC4)c3c2C)cc1 -5.05%
O=S(=O)(NCC(c1ccco1)N1CCOCC1)c1ccc(Cl)cc1 (stereo not given) -1.4%
Cc1ccccc1NC(=O)C1CCN(S(=O)(=O)c2ccccc2)CC1 2.47%
O=C(Nc1ccccc1C(F)(F)F)Nc1c[nH]c(=O)[nH]c1=O 2.42%
COc1ccc(Nc2c(-c3ccco3)nc3cccc(C)n23)cc1 -13.3%
Cc1ccc2c(C)c(C(=O)N3CCC(c4nc5ccccc5s4)CC3)oc2c1C 2.15%
COc1cc(OC)c(OC)cc1CN1CCc2nc(N3CCN(c4ccccc4F)CC3)ncc2C1 0%
COc1ccc(C2C=C(c3ccccc3)Nc3nc(NS(=O)(=O)c4ccc(C)cc4)nn32)cc1 (stereo not given) 0.0739%
Cc1c(C(=O)OC2CCCCC2)[nH]c2c1C(=O)CC(c1ccccc1)C2 (stereo not given) -17.6%
Cc1ccc(OCC(=O)N(Cc2ccc(Cl)cc2)CC2CCCO2)cc1C (stereo not given) -9.48%
Cc1cc(N2CCN(c3cccc(C(F)(F)F)c3)CC2)n2nc(-c3ccccc3C)nc2n1 -4.84%
CCCOc1ccc(C2C(=O)N(C3CCCCCC3)CC(=O)N2Cc2ccc(OC)cc2)cc1OC (stereo not given) 7.35%
CCN(CC)S(=O)(=O)c1ccc2c(c1)N(CC(=O)NCc1ccc(F)cc1)C(=O)CO2 -11.6%
CCC(C)NC(=O)CSc1nc2c(sc3ccccc32)c(=O)n1CCc1ccccc1 (stereo not given) -0.65%
O=S(=O)(c1cccc(C(F)(F)F)c1)N1CCC(Oc2ccc(-n3cnnn3)cc2)CC1 1.44%
Cc1ccc2oc(=O)c3cnn(CC(=O)N4CCN(c5cccc(C(F)(F)F)c5)CC4)c3c2c1 1.96%
Cc1cc(C)c2oc(-c3cc(NC(=O)Cc4ccccc4)ccc3Cl)nc2c1 -4.63%
